Source: the supplement of paper PMC10338343
± gives the standard deviation. This is a selection; strong and weak results do not stand in their true shares.

Each sequence was assayed on MIWI (PIWIL1) piRISC loaded with piRNA #1 (30 nt) (assay: pre-steady-state target cleavage rate (min^-1); MIWI and MILI are mouse PIWI proteins and EfPiwi is from a freshwater sponge; tags in brackets are library labels; higher = faster piRNA-guided slicing of the target). Conditions: guide: piRNA #1 5'p-UGAGGUAGUAGGUUGUAUAGUAUCCAGAGG; auxiliary factor: 500 nM mouse GTSF1.
Outline: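 In this Cleave-'n-Seq assay, uncleaved targets were sequenced and normalised to depth and to weakly complementary targets. They came from a transcribed, DNA-blocked target RNA library […] mixed with 1 nM active affinity-purified piRISC carrying one synthetic guide, with or without 500 nM GTSF1 partner protein, in HEPES–potassium acetate buffer at 33 °C for 0–8 or 0–960 min. After three trials were pooled and k3 was capped at 0.0001 min^-1, the pre-steady-state cleavage rate was obtained from a burst-and-steady-state fit.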
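Also: 1 nM active piRISC with 0.1 nM target library at 33 °C single turnover.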

Row | Sequence | pre-steady-state target cleavage rate
1 | CCUCUGGAUACUUUACAACCUACUACCUCA | 1.99 ± 0.12
2 | GGAGACCUAUGUAUAGAACCUACUACCUGA | 0.00398 ± 0.0017
3 | GGUCUGGUUACUAUACAUCCUACUACCUCA | 1.68 ± 0.1
4 | GGAGACCUAUGUAUACAACUUACUACCUCA | 0.0216 ± 0.0032
5 | GCUCUGGAUAGAAUACAACCUACUACCUCA | 1.05 ± 0.051
6 | GGUCUGGAUACUAUACAUCCUACUUCCUCA | 0.246 ± 0.03
7 | GGUCUGGAUACUAUACAACCUAGUACGUCA | 0.00588 ± 0.003
8 | GGAGACGAUACUAUAGAACCUACAACCUCA | 0.00664 ± 0.0041
9 | GGAGACCUUACAAUACAACCUACUACGUCA | 0.24 ± 0.036
10 | GGAGACCAUAGUAUACAAGCUACUACCUCA | 0.399 ± 0.028
11 | GGAGUGGAUACAAUACAACCUACUACGUCA | 0.298 ± 0.025
12 | GGAGUCCAUACUAUACAACCUACUACCUCA | 1.63 ± 0.091
13 | GGACGGGAUACUAUACAACCUACUACCUCA | 1.66 ± 0.12
14 | GGAGACCUAUGAAUAGAACCUACUACGUCA | < 0.0001
15 | GCUCUGGAUACUAAACAACGUACUACCUCA | 1.06 ± 0.07
16 | GGACUGGAUACUAUAGAACCUAGUACCUCA | 0.00611 ± 0.0028
17 | GGACUGUGAUACUAUACAACCUACUACCUCA | 1.72 ± 0.11
18 | GGAGACGAACUAUACAACCUACUACCUCA | 1.27 ± 0.088
19 | GGAGAGGAUACUAUACAACUUACUACCUCA | 0.309 ± 0.021
20 | GGAGACCUUACUAUAGAACCUACUACCACA | 0.246 ± 0.031

Row | Sequence | pre-steady-state target cleavage rate
21 | GGUCUGGAUACUAUUCAACCUUCUACCUCA | 0.594 ± 0.036
22 | CCUCUGGAAUGUAUACAACCUACUACCUCA | 0.505 ± 0.029
23 | GGAGACCUUACUAAACAACCUACUACCUGA | 0.223 ± 0.032
24 | GCUCUGGAUACUAUACAACCUACUAACCUCA | 1.71 ± 0.11
25 | GGAGACCUUACUAUACAACCUAGUACCUCA | 0.44 ± 0.036
26 | GGAGACGUAACUAUACAACCUACUACCUCA | 1.39 ± 0.11
27 | GGAGACCUUACUAUACAAACUACUACCUCA | 0.725 ± 0.044
28 | GGAGACCUUACUAUACAACUACUACCUCA | 0.0384 ± 0.0051
29 | CCUCUGGAUACUAUUCAUCCUACUACCUCA | 1.61 ± 0.12
30 | GGACUGGAUACCAUACAACCUACUACCUCA | 1.59 ± 0.13
31 | GGAGACCUAUGAUUACUAACCUACUACCUCA | < 0.0001
32 | GGAGACCUAUCUAUACAACCUAAUACCUCA | 0.128 ± 0.014
33 | GGUCUGGAUUCUAUACAACCUACUACCUGA | 0.796 ± 0.14
34 | GGAGACCUUACUAUACAAGCAACUACCUCA | 0.0142 ± 0.0025
35 | GGAGACCUAUGAUAUGUUGGUACUACCCUCA | < 0.0001
36 | CCUGUGGAUUCUAUACAACCUACUACCUCA | 1.87 ± 0.1
37 | GGAGAGGAUACUAUAUAACCUACUACCUCA | 1.39 ± 0.067
38 | GGAGACCUAUCUAUACAACCUACUACGUGA | 0.378 ± 0.036
39 | GGAGUGGAUACUAUUCAACCUACUACGUCA | 0.34 ± 0.038
40 | GGAGACCUAUGUAUACAUCCUUCUACCUCA | 0.00379 ± 0.002
